The supplement of paper PMC11417369
± gives the standard deviation of the averaged measurements. The list shows a part of the results.

test system: PfAP2-LT AP2 domain (GST-tagged); test: gcPBM binding intensity (ln(normalized median fluorescence intensity)); higher = stronger DNA binding
Method in brief: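 After 1 h on an Agilent 4 × 180k array of primer-extended double-stranded 36-bp intergenic genomic probes and negative controls, bound GST-tagged P. falciparum DNA-binding domains were detected with Alexa488 anti-GST antibody and scanned at 488 nm. The domains had been expressed in E. coli, and binding took place in 1× PBS with 1% milk, 0.2 mg/ml BSA, 0.5% salmon testes DNA and 0.03% Triton X-100. Binding intensity is the highest Masliner-normalised natural-log median intensity across replicate spots of either probe orientation.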

Sequence	gcPBM binding intensity (ln)
ACGTTAAAAACAAGTTGTACACAATAAATTATTCTT [XGTACX_site6321]	8.73 ± 0.52
TATATATATATATGTAGTACTTTACAAAATAATTCG [XGTACX_site5322]	9.06 ± 0.13
TAGTTATCACATTGCACACACATTTCCTTTTACATT [CACACA_site7589]	9.51 ± 0.31
TTATTTATACGCTATGAGTTTGATACAAACAATTAA [XGTACX_negctrl_site456]	8.54 ± 0.26
TTTTTACGGAATTAGAGAAAAGAAATAAAAAAAAAA [XGTACX_negctrl_site436]	8.07 ± 0.54
TTTATATTTATGTAGGTGCATTTGTTTACAACATAT [GTGCAC_site9511]	8.87 ± 0.49
AATAAATTCATGATAGTGCAAAAATTATTTTTGTTA	8.6 ± 0.44
GCATAACCTTTATATTGTACATATACCTTTATTGTT [XGTACX_site6046]	9.24 ± 0.42
AAAGATGATAAAATATGTACACACAGTTTATACATT [XGTACX_site8703]	8.98 ± 0.38
TGAGTCTTTTACATTGCACACACATTTCTTTCCTTT [CACACA_site8978]	9.66 ± 0.35
ATTATCCATCAAAAGGTGCAAATTTTTAATTATAAA [GTGCAC_site9932]	8.52 ± 0.45
ATATATGTATATATGTACATGAATATATAAAGAAAA [CACACA_negctrl_site315]	9.01 ± 0.52
ACAAATAAATAAATATGTACTTAATTATATAATTGA [XGTACX_site5626]	8.5 ± 0.34
TATTTATACTAATATGCATGTAATCGAAATACAGCT [TGCATGCA_site457]	8.77 ± 0.33
GTTTATATTTAATTTTTTTGTTTTTTTGTGTAATTC [XGTACX_negctrl_site194]	8.74 ± 0.59
ATATATATAAACAAAAGTACATATATAAATTCATTT [XGTACX_site3482]	8.71 ± 0.43
TCTTATATTATATTGTGTATTAAAATTTAACTTCAA [TGCATGCA_negctrl_site565]	8.46 ± 0.53
TTAAAGTTACATTCGACACACACATAACAACTAAAT [CACACA_site9130]	9.36 ± 0.31
AATAAAAAAAAAATATATATTTTTTTTTTTTTTTTT [CACACA_negctrl_site54]	8.39 ± 0.27
ATCTATTCACACTTTTAAAAATTAAATATATTATAT [TGCATGCA_negctrl_site610]	8.52 ± 0.44
TAATTTTTTTTTTATAGTACACATATTAAAGAATTA [XGTACX_site2485]	8.16 ± 0.24
CAAATACATAGACACACACACATATACATATTTATA [CACACA_site7610]	9.86 ± 0.5

Sequence	gcPBM binding intensity (ln)
GAATAAAGGAGAGGCACACATATATATATATATATA [CACACA_site2452]	10.04 ± 0.085
TATTTGATAAATTATACACACACAATATATATAAAA [CACACA_site8625]	9.2 ± 0.3
TTTATATTTAAATGCATGCACTTTCTATTTTTTTTT [GTGCAC_site9959]	9.13 ± 0.53
GAGGATCATCAATTCACACACATAAAAATGAAGTTA [CACACA_site3078]	9.13 ± 0.5
TATATAAAATTCTATTGTACATGTTATACGAAAGAA [XGTACX_site5711]	8.53 ± 0.35
CAACGATACAAAAAAGGTACACATATATATATATAT [XGTACX_site8688]	9.86 ± 0.014
CAATTTTCTAATGAAACATGCAAAATAAAATTTTAT [TGCATGCA_site13]	8.39 ± 0.4
TTCTTTTTAATGTCGGTGCAACTCCATAAAAACAAA [GTGCAC_site9488]	8.22 ± 0.35
TTTGTAGCACTTAAGAGTACAAAATGTATAAGATTT [XGTACX_site2321]	8.71 ± 0.47
TTAATATAATTAAAATGTACTTATTTGTAAACATTA [XGTACX_site6313]	8.15 ± 0.52
GACCATGTTAACAAAGCATGCATCTCTATATGTTTA [TGCATGCA_site358]	8.88 ± 0.38
ACATAAAATAAATATACACACATATGTATATATCAT [CACACA_site7424]	9.2 ± 0.36
AAGAAAAACAATACGTGTACCAAGCATCCTACTAAC [XGTACX_site6628]	9.06 ± 0.42
AAAAAAAAAAGAAAGAGTACTTTTTCAATACATATA [XGTACX_site2468]	8.31 ± 0.52
TTATTTTATAAATCGAAAACAAACAAAAAAAAGATA [XGTACX_negctrl_site178]	8.48 ± 0.33
TTGCTGTATTTATTTTGTACACATTTGGCATTATAT [XGTACX_site3408]	9.19 ± 0.38
AACAAACACAGACACACACACACACTAATATGATTA [CACACA_site8770]	10.2 ± 0.45
ATATACTATTATGTGTGTACATAATAATTTATTATA [XGTACX_site3776]	8.91 ± 0.37
TCATACATTTTCCTTGCACACATTTATAATTAATGG [CACACA_site4511]	9.11 ± 0.37
TAAAACAAAAAAAAGATGCACTATTTATTTTATTAT	8.46 ± 0.43
AAAAAAATATATATATATATATATATATTATATATG [GTGCAC_negctrl_site654]	8.99 ± 0.29
TTTAAAAAAAAAAAAAAAAAAAAAAAAAAAAATTTG [CACACA_negctrl_site1235]	7.96 ± 0.53
